Here are results for 38 compounds from PubChem BioAssay AID1745853 (National Center for Advancing Translational Sciences (NCATS), 2022).

Assay in all cases: Primary Screen for Target Class Profiling of Small Molecule Inhibitors of Methyltransferases
The target in assay [1] is Glycine N-methyltransferase (Homo sapiens) (UniProt Q14749). To be noted: purified enzyme, MTase-Glo SAH luminescence; measured here: GNMT inhibition; at 40 µM; stronger effect = lower value. In a few lines: (§1)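 Each enzyme was assayed with SAM and its substrate. SAH formation detected by MTase-Glo luminescence; single-point 40 uM screen[…].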
In assay [2] the target is Guanidinoacetate N-methyltransferase (Homo sapiens) (UniProt Q14353). To be noted: purified enzyme, MTase-Glo SAH luminescence; measured here: GAMT inhibition; at 40 µM; stronger effect = lower value. The gist of the method: as §1
Assay [3] addresses Histamine N-methyltransferase (Homo sapiens) (UniProt P50135). The following applies: purified enzyme, MTase-Glo SAH luminescence; measured here: HNMT inhibition; at 40 µM; stronger effect = lower value. The gist of the method: as §1
The target in assay [4] is Nicotinamide N-methyltransferase (Homo sapiens) (UniProt P40261). To be noted: purified enzyme, MTase-Glo SAH luminescence; measured here: NNMT inhibition; at 40 µM; stronger effect = lower value. In a few lines:
as §1

Assay [5] deals with Phenylethanolamine N-methyltransferase (Homo sapiens) (UniProt P11086). To be noted: purified enzyme, MTase-Glo SAH luminescence; measured here: PNMT inhibition; at 40 µM; stronger effect = lower value. In a few lines:
as §1

Molecules are shown by their SMILES. Several values for one entry are separate records, joined by “and”; a condition that tells them apart may be missing. Identical values can stand only once. The list shows a part of the results. The main result of the screen is listed elsewhere. These columns were measured beside it and carry no call.
On the % scale 0 is the no-effect control and ±100 the full control effect.

As for `COc1ccccc1CNC(=O)C1(C)Cn2nc(-c3ccccc3)cc2C(=O)N1CCc1ccco1` (stereo not given), the activity change, negative = inhibition amounted to 3.04% in assay [1]; 0% in assay [2]; 8.3% in assay [3]; 3.16% in assay [4]; 2.92% in assay [5].

In the case of `Cc1ccc(CNC(=O)CSc2nnc3n(CC(C)C)c(=O)c4ccccc4n23)cc1`, the activity change, negative = inhibition was -4.44% in assay [1]; -2.89% in assay [2]; 1.95% in assay [3]; -3.07% in assay [4]; -4.6% in assay [5].

For the compound `CCc1ccc(C(=O)NC(Cc2c[nH]c3ccccc23)C(=O)OCC(=O)c2ccc(Br)cc2)cc1` (stereo not given), the activity change, negative = inhibition in assay [1] was 14%; in assay [2], 1.18%; in assay [3] it was 11.8%; in assay [4], -0.131%; in assay [5], 4.74%.

As for `O=c1c2ccccc2n2c(SCc3ccccc3)nnc2n1CCc1ccccc1`, the activity change, negative = inhibition was -1.27% in assay [1]; 0% in assay [2]; 6% in assay [3]; -4.93% in assay [4]; 3.91% in assay [5].

Consider `CCCC(CCC)C(=O)OC1CC2CCC(C1)[N+]2(C)C` (stereo not given), for which the activity change, negative = inhibition is 7.92% in assay [1]; 10.1% in assay [2]; 13.9% in assay [3]; -4.34% in assay [4]; 3.93% in assay [5].

Take `COc1cc(CNC(=O)CCCC/C=C/C(C)C)ccc1O`: the activity change, negative = inhibition in assay [1] is -4.98%; in assay [2], 2.95%; in assay [3], 6.88%; in assay [4], -15.2%; in assay [5], -2.66%.

Turning to `Clc1ccc(C2(c3ccc(-c4cn[nH]c4)cc3)CCNCC2)cc1`, the activity change, negative = inhibition in assay [1] was 0.109%; in assay [2], 8.68%; in assay [3] it was -92.9%; in assay [4], -33.4%; in assay [5] it was 4.2%.

For `CCOc1ccccc1CNC(=O)CCn1ccc2cc(S(=O)(=O)N3CCCCC3)ccc21`, the activity change, negative = inhibition is 8.8% in assay [1]; 0.431% in assay [2]; -1.16% in assay [3]; 0.674% in assay [4]; 1.4% in assay [5].

Regarding `O=C(c1ccccc1)N1CCC(Oc2cccc(F)c2)(C(=O)O)CC1`, the activity change, negative = inhibition was -6.65% in assay [1]; -9.2% in assay [2]; -5.43% in assay [3]; -5.48% in assay [4]; -9.03% in assay [5].

`COC(=O)c1cc2n(n1)CC(C)(C(=O)NC1CCCCCC1)N(Cc1cccc(C)c1)C2=O` (stereo not given): the activity change, negative = inhibition in assay [1] is -0.613%; in assay [2] it was 0.865%; in assay [3] it was -7.77%; in assay [4], -0.231%; in assay [5] it was -0.162%.

Consider `CC(C)Cn1c(=O)c2ccccc2n2c(SCc3cccc(F)c3)nnc12`, for which the activity change, negative = inhibition in assay [1] was -7.26%; in assay [2] it was 4.14%; in assay [3] it was 1.76%; in assay [4] it was -13%; in assay [5] it was 1.98%.

On to `CCCn1c(=O)c2ccccc2n2c(SCc3c(F)cccc3Cl)nnc12`, for which the activity change, negative = inhibition in assay [1] is -16.2%; in assay [2], 1.82%; in assay [3], 4.59%; in assay [4], -19.9%; in assay [5], 8.67%.

Turning to `COc1ccc(CCN2C(=O)c3nc4ccccc4n3CC2(C)C(=O)NC2CCCCC2)cc1OC` (stereo not given), the activity change, negative = inhibition in assay [1] is -1.29%; in assay [2], 4.56%; in assay [3], -5.48%; in assay [4], -26.5%; in assay [5] it was -0.867%.

As for `COc1ccc(NS(=O)(=O)c2cc3[nH]c(=O)[nH]c3cc2C)c(OC)c1`, the activity change, negative = inhibition in assay [1] was 8.66%; in assay [2], 2.38%; in assay [3], 11.2%; in assay [4] it was 2.21%; in assay [5], -2.06%.

For the compound `Cc1cccc2c1cnn2C(=O)CCC(=O)N1CCN(C2CCCCC2)CC1`, the activity change, negative = inhibition is -4.98% in assay [1]; 0% in assay [2]; 0.349% in assay [3]; -0.264% in assay [4]; -2.39% in assay [5].

As to `O=C(CCn1ccc2cc(S(=O)(=O)N3CCCCC3)ccc21)NCCc1ccccc1`, the activity change, negative = inhibition in assay [1] was 0.524%; in assay [2] it was 0.982%; in assay [3] it was -4.76%; in assay [4] it was -4.1%; in assay [5], 0.354%.

`NC1CCN(O)C1=O` (stereo not given): the activity change, negative = inhibition was -4.81% in assay [1]; 5.82% in assay [2]; 0.673% in assay [3]; -5.38% in assay [4]; 5.83% in assay [5].

In the case of `CCS(=O)(=O)c1cccc(-c2cc(C(=O)NC3CCN(C)CC3)c(C)c3[nH]c4ncc(C)cc4c23)c1`, the activity change, negative = inhibition in assay [1] is -17.2% and -22.4%; in assay [2] it was 3.06%; in assay [3], -18.3% and -28.4%; in assay [4] it was -54.4% and -67.1%; in assay [5], -0.704% and -11.1%.

`Cn1c(C(=O)NCCN2CCCCC2)cc2c1CCN(Cc1cccc(F)c1)C2`: the activity change, negative = inhibition in assay [1] is -7.09%; in assay [2] it was -2.6%; in assay [3] it was -53.7%; in assay [4] it was -9.9%; in assay [5] it was -3.27%.

Consider `CN1C(=O)c2cc(C(=O)NCc3ccccc3)nn2CC1(C)C(=O)NCc1ccccc1` (stereo not given), for which the activity change, negative = inhibition in assay [1] is 5.39%; in assay [2] it was 0%; in assay [3] it was 4.39%; in assay [4], -1.34%; in assay [5] it was 1.81%.

With `CC(C)NC(=O)c1ccc2c(=O)n(Cc3ccccc3)c3nn(CC(=O)NC(C)(C)C)c(=O)n3c2c1`, the activity change, negative = inhibition in assay [1] was determined as 2.81%; in assay [2], 0%; in assay [3], 9.93%; in assay [4], 2.76%; in assay [5], 4.74%.

`COC(=O)C1C(c2ccc(O)cc2)C(C(=O)O)C1c1ccc(O)cc1` (stereo not given): the activity change, negative = inhibition in assay [1] is 3.67%; in assay [2] it was -3.31%; in assay [3], 6.14%; in assay [4] it was -13.4%; in assay [5] it was -0.874%.

Regarding `COc1ccc2cc3n(c2c1)CC(C)(C(=O)NCC1CCCO1)N(Cc1ccccc1F)C3=O` (stereo not given), the activity change, negative = inhibition in assay [1] is 1.68%; in assay [2], 3.66%; in assay [3] it was 0.629%; in assay [4], 6.45%; in assay [5] it was -0.663%.

Regarding `Cc1ccccc1C(=O)N1C(C(=O)NCc2ccccc2)COC12CCN(C(=O)c1ccco1)CC2` (stereo not given), the activity change, negative = inhibition in assay [1] was -6.6%; in assay [2], -9.43%; in assay [3], -8.27%; in assay [4], -13%; in assay [5], -8.52%.

For `O=C(CCn1c(=O)[nH]c2cc(S(=O)(=O)N3CCCCC3)ccc21)Nc1ccc(Cl)cc1`, the activity change, negative = inhibition in assay [1] was -33.8%; in assay [2], 1.84%; in assay [3] it was -11.1%; in assay [4], -20.8%; in assay [5] it was -14.4%.

In the case of `COCc1nc(CCNC(=O)NC2CCCCC2)no1`, the activity change, negative = inhibition was -1.85% in assay [1]; -4.62% in assay [2]; 0.65% in assay [3]; -6.96% in assay [4]; 11.4% in assay [5].

As for `CC(C)CNC(=O)c1ccc2c(=O)n(CC(C)C)c3nn(CC(=O)c4cccc(Cl)c4)c(=O)n3c2c1`, the activity change, negative = inhibition in assay [1] was 3%; in assay [2] it was 0%; in assay [3], 9.33%; in assay [4], -4.31%; in assay [5] it was 3.74%.

On to `CC1CCC(NC(=O)C2(C)Cn3c(cc4sccc43)C(=O)N2C2CCCCC2)CC1` (stereo not given), for which the activity change, negative = inhibition in assay [1] was -9.56%; in assay [2] it was -0.299%; in assay [3] it was -8.96%; in assay [4] it was -11.4%; in assay [5], -11.1%.

With `CCOc1ccc(N2C(=O)c3cc(-c4ccc(OC)cc4)nn3CC2(C)C(=O)NCc2ccccc2)cc1` (stereo not given), the activity change, negative = inhibition in assay [1] was 3.77%; in assay [2] it was 0%; in assay [3], 1.73%; in assay [4] it was 7.38%; in assay [5] it was -2.81%.

As for `CCOC(=O)c1cc2n(n1)CC(C)(C(=O)NCc1ccc(C)cc1)N(CCc1ccc(SC)cc1)C2=O` (stereo not given), the activity change, negative = inhibition in assay [1] is -0.154%; in assay [2], 1.39%; in assay [3], -2.82%; in assay [4] it was -1.1%; in assay [5], -1.39%.

On to `CCCC(=O)O[C@@H]1[C@@H]2[C@@H](OC(C)=O)[C@]3(C)C(=O)[C@H]4[C@@H](OC(C)=O)C(C)(C)C[C@H]4[C@]3(C)C(=O)[C@@]2(OC(C)=O)C[C@@H]1C`, for which the activity change, negative = inhibition in assay [1] was 0.68%; in assay [2], -8.76%; in assay [3], 3.98%; in assay [4] it was -19.3%; in assay [5] it was -2.51%.

For the compound `COc1ccc(-c2nc(N3CCOCC3)cc3c2CN(Cc2ccccc2)C3=O)cn1`, the activity change, negative = inhibition in assay [1] is -9.51%; in assay [2] it was -0.362%; in assay [3], -1.81%; in assay [4], -8.32%; in assay [5] it was -2.87%.

For the compound `COc1ccc(NC(=O)N2CCCC(CN3CCC(C)CC3)CC2)cc1` (stereo not given), the activity change, negative = inhibition in assay [1] is 0.887%; in assay [2] it was 3.38%; in assay [3], -7.59%; in assay [4], -5.36%; in assay [5], 13.9%.

For the compound `COc1ccc(CN2C(=O)c3cc4ccccc4n3CC2(C)C(=O)NC2CCCCC2)cc1` (stereo not given), the activity change, negative = inhibition was -3.98% in assay [1]; 0% in assay [2]; 0.541% in assay [3]; -2.62% in assay [4]; -3.57% in assay [5].

Consider `COc1ccc(-c2cc3n(n2)CC(C)(C(=O)NCc2ccccc2OC)N(Cc2cccc(C)c2)C3=O)cc1` (stereo not given), for which the activity change, negative = inhibition in assay [1] was 5.79%; in assay [2] it was 0%; in assay [3], 5.01%; in assay [4], 3.15%; in assay [5] it was -1.12%.

Consider `CC1CCC(NC(=O)CCc2nnc3n(Cc4ccccc4)c(=O)c4ccccc4n23)CC1` (stereo not given), for which the activity change, negative = inhibition in assay [1] is -0.01%; in assay [2], 1.33%; in assay [3], 6.44%; in assay [4], -0.567%; in assay [5] it was 2.32%.

For the compound `CCC(C)NC(=O)c1ccc2c(=O)n(C)c3nn(CC(=O)NCc4ccc(Cl)cc4)c(=O)n3c2c1` (stereo not given), the activity change, negative = inhibition was 4.47% in assay [1]; 1.53% in assay [2]; 4.09% in assay [3]; -2.94% in assay [4]; 1.56% in assay [5].

Take `O=C(NCCc1ccco1)c1cc2n(n1)CCCN(Cc1cccc(F)c1)C2=O`: the activity change, negative = inhibition in assay [1] is -9.05%; in assay [2], 4.92%; in assay [3], -6.98%; in assay [4], -9.84%; in assay [5], -3.82%.
